# The supplement of paper PMC8728848
# This is one part of the list.
# B1: Als1 (Candida albicans), P46590 (protein)
# chain: KTITGVFDSFNSLTWSNAANYAFKGPGYPTWNAVLGWSLDGTSANPGDTFTLNMPCVFKYTTSQTSVDLTADGVKYATCQFYSGEEFTTFSTLTCTVNDALKSSIKAFGTVTLPIAFNVGGTGSSTDLEDSKCFTAGTNTVTFNDGDKDISIDVEFEKSTVDPSGYLYASRVMPSLNKVTTLFVAPQCENGYTSGTMGFSSSNGDVAIDCSNIHIGITKGLNDWNYPVSSESFSYTKTCTSNGIQIKYQNVPAGYRPFIDAYISATDVNQYTLAYTNDYTCAGSRLQSKPFTLRWTGYKNSDAGSNGIVIVATTRTVTDSTTAVTTLPFNPSVDKTKTIEILQPIPTTTITTSYVGVTTSYLTKTAPIGETATVIVDVPYHTTTTVTSEWTGTITTTTTRTNPTDSIDTVVVQVP
# Experiments:
# Experiment in all cases: glycan array binding signal (z-score within array); higher = stronger binding
# Conditions in all cases: glycan notation: IUPAC condensed, linker removed
# [1] = biological target: Gal(b1-4)GalNAc(b1-3)[Fuc(a1-2)]Gal(b1-4)GlcNAc
# How it was run: (§1)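 The Consortium for Functional Glycomics database supplied 3228 glycan arrays, of which those lacking an available protein sequence were dropped. The binding signal, a within-array Z-score, was averaged across arrays of the same protein sequence and across linkers. Negative scores can be read as non-binding.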
# Gal(b1-4)Glc = biological target: Gal(b1-4)Glc
# How it was run: as §1
# Gal(b1-4)Glc6S = biological target: Gal(b1-4)Glc6S
# How it was run: as §1
# Gal(b1-4)GlcNAc = biological target: Gal(b1-4)GlcNAc
# How it was run: as §1
# [2] = biological target: Gal(b1-4)GlcNAc(a1-6)Gal(b1-4)GlcNAc
# How it was run: as §1
# Gal(b1-4)GlcNAc(b1-2)Man = biological target: Gal(b1-4)GlcNAc(b1-2)Man
# How it was run: as §1
# [3] = biological target: Gal(b1-4)GlcNAc(b1-2)Man(a1-3)Man(b1-4)GlcNAc(b1-4)GlcNAc
# How it was run: as §1
# [4] = biological target: Gal(b1-4)GlcNAc(b1-2)Man(a1-3)[Gal(b1-4)GlcNAc(b1-2)Man(a1-6)]Man(b1-4)GlcNAc(b1-4)GlcNAc
# How it was run: as §1
# [5] = biological target: Gal(b1-4)GlcNAc(b1-2)Man(a1-3)[Gal(b1-4)GlcNAc(b1-2)Man(a1-6)]Man(b1-4)GlcNAc(b1-4)[Fuc(a1-6)]GlcNAc
# How it was run: as §1
# [6] = biological target: Gal(b1-4)GlcNAc(b1-2)Man(a1-3)[Gal(b1-4)GlcNAc(b1-2)Man(a1-6)][Gal(b1-4)GlcNAc(b1-4)]Man(b1-4)GlcNAc(b1-4)[Fuc(a1-6)]GlcNAc
# How it was run: as §1
# [7] = biological target: Gal(b1-4)GlcNAc(b1-2)Man(a1-3)[Gal(b1-4)GlcNAc(b1-2)Man(a1-6)][GlcNAc(b1-4)]Man(b1-4)GlcNAc(b1-4)[Fuc(a1-6)]GlcNAc
# How it was run: as §1
# [8] = biological target: Gal(b1-4)GlcNAc(b1-2)Man(a1-3)[GlcNAc(b1-2)Man(a1-6)]Man(b1-4)GlcNAc(b1-4)GlcNAc
# How it was run: as §1
# [9] = biological target: Gal(b1-4)GlcNAc(b1-2)Man(a1-3)[GlcNAc(b1-4)][Gal(b1-4)GlcNAc(b1-2)Man(a1-6)]Man(b1-4)GlcNAc(b1-4)GlcNAc
# How it was run: as §1
# [10] = biological target: Gal(b1-4)GlcNAc(b1-2)Man(a1-3)[Man(a1-6)]Man(b1-4)GlcNAc(b1-4)GlcNAc
# How it was run: as §1
# [11] = biological target: Gal(b1-4)GlcNAc(b1-2)Man(a1-6)Man(b1-4)GlcNAc(b1-4)GlcNAc
# How it was run: as §1
# [12] = biological target: Gal(b1-4)GlcNAc(b1-2)Man(a1-6)[GlcNAc(b1-2)Man(a1-3)]Man(b1-4)GlcNAc(b1-4)GlcNAc
# How it was run: as §1
# [13] = biological target: Gal(b1-4)GlcNAc(b1-2)Man(a1-6)[Man(a1-3)]Man(b1-4)GlcNAc(b1-4)GlcNAc
# How it was run: as §1
# [14] = biological target: Gal(b1-4)GlcNAc(b1-2)[Gal(b1-4)GlcNAc(b1-4)]Man(a1-3)[Gal(b1-4)GlcNAc(b1-2)Man(a1-6)]Man(b1-4)GlcNAc(b1-4)GlcNAc
# How it was run: as §1
# [15] = biological target: Gal(b1-4)GlcNAc(b1-2)[Gal(b1-4)GlcNAc(b1-4)]Man(a1-3)[Gal(b1-4)GlcNAc(b1-2)[Gal(b1-4)GlcNAc(b1-6)]Man(a1-6)]Man(b1-4)GlcNAc(b1-4)GlcNAc
# How it was run: as §1
# [16] = biological target: Gal(b1-4)GlcNAc(b1-2)[Gal(b1-4)GlcNAc(b1-4)]Man(a1-3)[GlcNAc(b1-4)][Gal(b1-4)GlcNAc(b1-2)Man(a1-6)]Man(b1-4)GlcNAc(b1-4)GlcNAc
# How it was run: as §1
# [17] = biological target: Gal(b1-4)GlcNAc(b1-2)[Gal(b1-4)GlcNAc(b1-4)]Man(a1-3)[GlcNAc(b1-4)][Gal(b1-4)GlcNAc(b1-2)[Gal(b1-4)GlcNAc(b1-6)]Man(a1-6)]Man(b1-4)GlcNAc(b1-4)GlcNAc
# How it was run: as §1
# [18] = biological target: Gal(b1-4)GlcNAc(b1-2)[Gal(b1-4)GlcNAc(b1-6)]Man(a1-6)[Gal(b1-4)GlcNAc(b1-2)Man(a1-3)]Man(b1-4)GlcNAc(b1-4)GlcNAc
# How it was run: as §1
# [19] = biological target: Gal(b1-4)GlcNAc(b1-2)[Gal(b1-4)GlcNAc(b1-6)]Man(a1-6)[Gal(b1-4)GlcNAc(b1-2)Man(a1-3)]Man(b1-4)GlcNAc(b1-4)[Fuc(a1-6)]GlcNAc
# How it was run: as §1
# [20] = biological target: Gal(b1-4)GlcNAc(b1-2)[Gal(b1-4)GlcNAc(b1-6)]Man(a1-6)[GlcNAc(b1-4)][Gal(b1-4)GlcNAc(b1-2)Man(a1-3)]Man(b1-4)GlcNAc(b1-4)GlcNAc
# How it was run: as §1
# [21] = biological target: Gal(b1-4)GlcNAc(b1-2)[Gal(b1-4)GlcNAc(b1-6)]Man(a1-6)[GlcNAc(b1-4)][Gal(b1-4)GlcNAc(b1-2)[Gal(b1-4)GlcNAc(b1-4)]Man(a1-3)]Man(b1-4)GlcNAc(b1-4)[Fuc(a1-6)]GlcNAc
# How it was run: as §1
# [22] = biological target: Gal(b1-4)GlcNAc(b1-3)Gal(b1-3)GalNAc
# How it was run: as §1
# [23] = biological target: Gal(b1-4)GlcNAc(b1-3)Gal(b1-3)GlcNAc
# How it was run: as §1
# [24] = biological target: Gal(b1-4)GlcNAc(b1-3)Gal(b1-4)Glc
# How it was run: as §1
# [25] = biological target: Gal(b1-4)GlcNAc(b1-3)Gal(b1-4)GlcNAc
# How it was run: as §1
# [26] = biological target: Gal(b1-4)GlcNAc(b1-3)Gal(b1-4)GlcNAc(b1-2)Man(a1-3)[Gal(b1-4)GlcNAc(b1-3)Gal(b1-4)GlcNAc(b1-2)Man(a1-6)]Man(b1-4)GlcNAc(b1-4)GlcNAc
# How it was run: as §1
# [27] = biological target: Gal(b1-4)GlcNAc(b1-3)Gal(b1-4)GlcNAc(b1-2)Man(a1-3)[Gal(b1-4)GlcNAc(b1-3)Gal(b1-4)GlcNAc(b1-2)Man(a1-6)]Man(b1-4)GlcNAc(b1-4)[Fuc(a1-6)]GlcNAc
# How it was run: as §1
# [28] = biological target: Gal(b1-4)GlcNAc(b1-3)Gal(b1-4)GlcNAc(b1-2)[Gal(b1-4)GlcNAc(b1-3)Gal(b1-4)GlcNAc(b1-6)]Man(a1-6)[Gal(b1-4)GlcNAc(b1-3)Gal(b1-4)GlcNAc(b1-2)Man(a1-3)]Man(b1-4)GlcNAc(b1-4)GlcNAc
# How it was run: as §1
# [29] = biological target: Gal(b1-4)GlcNAc(b1-3)Gal(b1-4)GlcNAc(b1-2)[Gal(b1-4)GlcNAc(b1-3)Gal(b1-4)GlcNAc(b1-6)]Man(a1-6)[Gal(b1-4)GlcNAc(b1-3)Gal(b1-4)GlcNAc(b1-2)Man(a1-3)]Man(b1-4)GlcNAc(b1-4)[Fuc(a1-6)]GlcNAc
# How it was run: as §1
# [30] = biological target: Gal(b1-4)GlcNAc(b1-3)Gal(b1-4)GlcNAc(b1-3)Gal(b1-4)GlcNAc
# How it was run: as §1
# [31] = biological target: Gal(b1-4)GlcNAc(b1-3)Gal(b1-4)GlcNAc(b1-3)Gal(b1-4)GlcNAc(b1-2)Man(a1-3)[Gal(b1-4)GlcNAc(b1-3)Gal(b1-4)GlcNAc(b1-3)Gal(b1-4)GlcNAc(b1-2)Man(a1-6)]Man(b1-4)GlcNAc(b1-4)GlcNAc
# How it was run: as §1
# [32] = biological target: Gal(b1-4)GlcNAc(b1-3)Gal(b1-4)GlcNAc(b1-3)Gal(b1-4)GlcNAc(b1-2)Man(a1-3)[Gal(b1-4)GlcNAc(b1-3)Gal(b1-4)GlcNAc(b1-3)Gal(b1-4)GlcNAc(b1-2)Man(a1-6)]Man(b1-4)GlcNAc(b1-4)[Fuc(a1-6)]GlcNAc
# How it was run: as §1
# [33] = biological target: Gal(b1-4)GlcNAc(b1-3)Gal(b1-4)GlcNAc(b1-3)Gal(b1-4)GlcNAc(b1-2)[Gal(b1-4)GlcNAc(b1-3)Gal(b1-4)GlcNAc(b1-3)Gal(b1-4)GlcNAc(b1-6)]Man(a1-6)[Gal(b1-4)GlcNAc(b1-3)Gal(b1-4)GlcNAc(b1-3)Gal(b1-4)GlcNAc(b1-2)Man(a1-3)]Man(b1-4)GlcNAc(b1-4)[Fuc(a1-6)]GlcNAc
# How it was run: as §1
binder,measurement,setting,value
B1,glycan array binding signal (z-score),[1],-0.644
same,glycan array binding signal (z-score),Gal(b1-4)Glc,-0.335
same,glycan array binding signal (z-score),Gal(b1-4)Glc6S,-0.453
same,glycan array binding signal (z-score),Gal(b1-4)GlcNAc,-0.264
same,glycan array binding signal (z-score),[2],-0.243
same,glycan array binding signal (z-score),Gal(b1-4)GlcNAc(b1-2)Man,-0.62
same,glycan array binding signal (z-score),[3],-0.558
same,glycan array binding signal (z-score),[4],-0.453
same,glycan array binding signal (z-score),[5],-0.619
same,glycan array binding signal (z-score),[6],-0.696
same,glycan array binding signal (z-score),[7],-0.709
same,glycan array binding signal (z-score),[8],0.004
same,glycan array binding signal (z-score),[9],8.37
same,glycan array binding signal (z-score),[10],0.585
same,glycan array binding signal (z-score),[11],-0.576
same,glycan array binding signal (z-score),[12],0.003
same,glycan array binding signal (z-score),[13],0.044
same,glycan array binding signal (z-score),[14],-0.526
same,glycan array binding signal (z-score),[15],-0.151
same,glycan array binding signal (z-score),[16],-0.758
same,glycan array binding signal (z-score),[17],-0.769
same,glycan array binding signal (z-score),[18],7.7
same,glycan array binding signal (z-score),[19],0.092
same,glycan array binding signal (z-score),[20],-0.477
same,glycan array binding signal (z-score),[21],-0.394
same,glycan array binding signal (z-score),[22],-0.31
same,glycan array binding signal (z-score),[23],-0.605
same,glycan array binding signal (z-score),[24],-0.573
same,glycan array binding signal (z-score),[25],-0.698
same,glycan array binding signal (z-score),[26],4.19
same,glycan array binding signal (z-score),[27],-0.489
same,glycan array binding signal (z-score),[28],0.032
same,glycan array binding signal (z-score),[29],0.182
same,glycan array binding signal (z-score),[30],-0.664
same,glycan array binding signal (z-score),[31],1.05
same,glycan array binding signal (z-score),[32],-0.67
same,glycan array binding signal (z-score),[33],0.016
